Measurements published in the supplement of paper PMC12217912.
The other results are listed elsewhere or left out. The full chains were built here from the parent and the listed change. Inactive controls read about 0.05.

B1: TEV protease; numbered along this chain (parent)
chain: MGESLFKGPRDYNPISSSICHLTNESDGHTTSLYGIGFGPFIITNKHLFRRNNGTLVVQSLHGVFKVKDTTTLQQHLVDGRDMIIIRMPKDFPPFPQKLKFREPQREERICLVTTNFQTKSMSSMVSDTSCTFPSGDGIFWKHWIQTKDGQCGSPLVSTRDGFIVGIHSASNFTNTNNYFTSVPKNFMELLTNQEAQQWVSGWRLNADSVLWGGHKVFMVKPEEPFQPVKEATQL

Variants of: B1
Experiment: raw area under fraction-flipped curve 0-4 h after induction (AUC4h, not background-subtracted), DNA-recorder readout of cleavage of the substrate (dimensionless); higher = more cleavage of the substrate by the protease variant
Settings: temperature: 34 °C; time window: 0-4 h after rhamnose induction
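Also: Bxb1 expression induced with 0.2% (w/v) L-rhamnose at OD600 near 0.5, cultures sampled hourly, flipped fraction per protease–substrate barcode pair counted by paired-end Illumina sequencing.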

Variant | area with substrate LNLYFQS | area with substrate TNLYFQS | area with substrate MNLYFQS | area with substrate PNLYFQS | area with substrate WNLYFQS | area with substrate SNLYFQS | area with substrate NNLYFQS | area with substrate QNLYFQS | area with substrate VNLYFQS | area with substrate YNLYFQS
K230A | 0.0351 | 0.0588 | – | – | – | – | – | – | – | –
F38E | – | – | 0.0498 | – | – | – | – | – | – | –
Q75D | – | 0.0595 | 0.0696 | 0.0549 | 0.057 | – | – | – | – | –
V78I | – | 0.0691 | 0.0847 | 0.0624 | 0.0563 | 0.057 | – | – | – | –
V113W | – | 0.0677 | 0.0735 | 0.065 | 0.0676 | 0.0549 | 0.0443 | – | – | –
T119C | – | – | 0.0576 | – | – | – | – | – | – | –
T119G | – | 0.0707 | 0.0511 | 0.0708 | – | – | – | 0.0668 | – | –
G166E | – | 0.0518 | 0.0539 | 0.0503 | 0.0502 | – | – | – | – | –
A170S | – | – | 0.07 | – | 0.0552 | – | – | – | – | –
V58S | – | 0.0397 | – | – | 0.0593 | 0.0394 | 0.0522 | – | 0.0507 | 0.0543
I85A | – | – | – | 0.0672 | 0.053 | – | 0.057 | – | – | –
F92K | – | – | – | – | 0.0346 | – | 0.0513 | – | – | –
M125W | – | – | – | – | – | 0.0567 | 0.0794 | – | – | –
N178C | – | – | – | – | 0.0502 | – | 0.0644 | – | – | 0.0596
T181K | – | – | – | 0.0463 | 0.0525 | – | 0.0525 | – | 0.0421 | 0.0716
D27E | – | 0.0749 | – | 0.0502 | 0.0565 | – | – | – | 0.0579 | 0.0628
K66Q | – | – | – | 0.0711 | – | 0.0697 | – | – | – | 0.0726
D91E | – | – | – | 0.0594 | – | 0.085 | – | – | – | 0.0588
L99N | – | 0.0786 | – | 0.0563 | 0.0496 | 0.0619 | – | – | – | 0.0472
Q118C | – | – | – | 0.0724 | – | – | – | – | – | 0.0671

Variant | area with substrate LNLYFQS | area with substrate TNLYFQS | area with substrate MNLYFQS | area with substrate PNLYFQS | area with substrate WNLYFQS | area with substrate SNLYFQS | area with substrate NNLYFQS | area with substrate QNLYFQS | area with substrate VNLYFQS | area with substrate YNLYFQS
C131H | – | – | – | 0.0699 | – | 0.0588 | – | – | – | 0.0427
C131W | – | 0.0573 | – | 0.0581 | – | – | – | – | – | –
G138Y | – | – | – | 0.0743 | – | – | – | – | – | –
G153M | – | 0.0479 | – | 0.0524 | – | 0.0467 | – | – | 0.0384 | –
S169Y | – | 0.0669 | – | 0.0465 | 0.0595 | 0.0573 | – | – | – | –
N172A | – | – | – | 0.0675 | – | 0.0435 | – | – | – | –
E195P | – | – | – | 0.0614 | – | – | – | – | – | –
R204P | – | – | – | 0.0477 | – | – | – | – | – | –
G2S | – | – | – | – | – | – | – | 0.0533 | – | –
K7S | – | – | – | – | – | – | – | 0.0888 | – | –
W141N | – | – | – | – | – | 0.0403 | – | 0.0513 | 0.0627 | 0.0606
G138P | – | 0.0659 | – | – | – | 0.0593 | – | – | – | –
Q227A | – | 0.0756 | – | – | – | 0.0598 | – | – | – | –
M1I | – | – | – | – | – | 0.0564 | – | – | – | –
G35I | – | – | – | – | – | 0.0667 | – | – | – | –
K66A | – | – | – | – | 0.0588 | 0.0686 | – | – | – | –
H76G | – | – | – | – | 0.0662 | 0.0568 | – | – | – | –
G138F | – | 0.0705 | – | – | 0.0515 | 0.0589 | – | – | – | –
G153F | – | 0.0451 | – | – | – | 0.0438 | – | – | – | –
I164V | – | – | – | – | – | 0.0488 | – | – | – | –

Variant | area with substrate LNLYFQS | area with substrate TNLYFQS | area with substrate MNLYFQS | area with substrate PNLYFQS | area with substrate WNLYFQS | area with substrate SNLYFQS | area with substrate NNLYFQS | area with substrate QNLYFQS | area with substrate VNLYFQS | area with substrate YNLYFQS
R87N | – | 0.0686 | – | – | 0.0538 | – | – | – | – | –
G153S | – | 0.0734 | – | – | – | – | – | – | – | –
G166K | – | 0.0556 | – | – | – | – | – | – | – | –
A170R | – | 0.0595 | – | – | – | – | – | – | – | 0.0545
N172Q | – | 0.0431 | – | – | – | – | – | – | – | –
T174I | – | 0.0382 | – | – | 0.0496 | – | – | – | – | 0.0725
N178M | – | 0.0953 | – | – | – | – | – | – | – | –
T181C | – | 0.0492 | – | – | 0.0557 | – | – | – | – | –
E195H | – | 0.0688 | – | – | 0.0563 | – | – | – | – | –
G213H | – | 0.0678 | – | – | – | – | – | – | – | 0.0428
H215I | – | 0.0606 | – | – | – | – | – | – | – | 0.0531
N186R | – | – | – | – | – | – | – | – | 0.0631 | –
T119R | – | – | – | – | 0.045 | – | – | – | – | –
C131Q | – | – | – | – | 0.0608 | – | – | – | – | –
T132K | – | – | – | – | 0.0608 | – | – | – | – | –
G138M | – | – | – | – | 0.0643 | – | – | – | – | –
E223A | – | – | – | – | 0.0597 | – | – | – | – | –
Q194I | – | – | – | – | – | – | – | – | – | 0.0689

Same assay, conditions: temperature: 34 °C; time window: 0-4 h after rhamnose induction

Variant | area with substrate RNLYFQS
W141N | 0.0426
G138P | 0.0453
G162V | 0.0491
Q227A | 0.0656
